The campaign covered roughly 310,000 compounds. About 14,000 (4.5%) showed an effect of 50% or more. The effect is printed as a negative number. The list shows a part of the results.
These compounds were tested against human ether-à-go-go-related gene (hERG) potassium channel (human, UniProt Q12809) (assay: primary screen, population patch clamp on CHO cells stably expressing hERG).
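Note: peak tail current of the secondary pulse compared with the same well before compound.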

Chain of human ether-à-go-go-related gene (hERG) potassium channel (Q12809 whole entry, looked up): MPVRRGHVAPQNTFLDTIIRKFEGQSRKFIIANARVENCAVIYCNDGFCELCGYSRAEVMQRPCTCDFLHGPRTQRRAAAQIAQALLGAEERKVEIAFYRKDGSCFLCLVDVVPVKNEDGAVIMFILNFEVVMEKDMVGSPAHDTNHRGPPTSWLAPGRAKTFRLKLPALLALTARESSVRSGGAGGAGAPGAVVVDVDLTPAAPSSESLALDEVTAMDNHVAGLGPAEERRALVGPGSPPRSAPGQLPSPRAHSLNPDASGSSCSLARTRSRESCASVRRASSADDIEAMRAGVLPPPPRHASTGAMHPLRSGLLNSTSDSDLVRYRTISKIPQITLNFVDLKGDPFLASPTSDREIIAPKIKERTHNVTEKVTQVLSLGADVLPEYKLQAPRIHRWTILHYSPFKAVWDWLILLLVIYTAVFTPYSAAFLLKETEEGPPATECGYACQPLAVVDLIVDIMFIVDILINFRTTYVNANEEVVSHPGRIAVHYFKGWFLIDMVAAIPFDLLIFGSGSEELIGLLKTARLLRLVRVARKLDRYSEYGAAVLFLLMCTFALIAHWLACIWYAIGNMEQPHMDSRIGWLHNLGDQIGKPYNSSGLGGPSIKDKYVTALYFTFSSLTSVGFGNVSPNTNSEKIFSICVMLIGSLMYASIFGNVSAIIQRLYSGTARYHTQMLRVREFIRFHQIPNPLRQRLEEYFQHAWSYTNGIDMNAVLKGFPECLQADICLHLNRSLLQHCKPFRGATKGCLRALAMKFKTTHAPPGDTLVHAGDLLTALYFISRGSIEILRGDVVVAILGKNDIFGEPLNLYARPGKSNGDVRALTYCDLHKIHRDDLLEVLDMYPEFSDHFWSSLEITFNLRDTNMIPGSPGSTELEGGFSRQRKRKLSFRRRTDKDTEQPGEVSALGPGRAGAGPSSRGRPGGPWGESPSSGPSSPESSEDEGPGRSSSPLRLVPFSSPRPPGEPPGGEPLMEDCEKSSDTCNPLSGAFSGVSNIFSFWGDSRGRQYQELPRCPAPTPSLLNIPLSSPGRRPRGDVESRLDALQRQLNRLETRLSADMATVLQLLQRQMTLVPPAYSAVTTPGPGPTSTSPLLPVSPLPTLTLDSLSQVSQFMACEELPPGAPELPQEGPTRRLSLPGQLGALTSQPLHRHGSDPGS

| Structure (SMILES) | hERG current change (%, negative = inhibition) at 10uM |
| --- | --- |
| Cc1ccc(C)c(-c2nc3ccc(N)cc3[nH]2)c1 | -15.5% |
| O=C1CC(C(F)(F)F)=NN1 | 16.9% |
| CC(C)c1ccc(-c2cc(C(=O)NN3CCN(C)CC3)c3ccccc3n2)cc1 | -3.79% |
| CCOCCCNC(=O)CN1CCN(S(=O)(=O)c2ccc3c(c2)CCC3)CC1 | 3.99% |
| Cc1ccc(CNCC(=O)Nc2ccc(N3CCOCC3)cc2)cc1.O=C(O)C(=O)O | -13.6% |
| Cc1ccc(-c2nc(Nc3ccc(O)cc3)c3ccccc3n2)cc1 | 22.4% |
| CCN(CCCNC(=O)CCn1c(=S)[nH]c2cc3c(cc2c1=O)OCO3)c1cccc(C)c1 | 12.9% |
| Cc1ccc2cc(C)c3nnc(SCC(=O)NCc4ccco4)n3c2c1 | -25.5% |
| CN(C)S(=O)(=O)N1CCC(c2ccc(F)cc2)C(COc2ccc3c(c2)OCO3)C1 (stereo not shown) | 10.2% |
| Cc1nnc(SCC(=O)N2CCN(S(=O)(=O)c3ccc(Cl)cc3)CC2)n(N)c1=O | -19% |
| CS(=O)(=O)c1ccccc1-c1nc(-c2cccc(Cl)c2)no1 | -12.9% |
| CCOCN(C(=O)Cn1cnc2ccccc21)c1c(C)cccc1CC | 1.74% |
| COc1cc(C2C3=C(CCCC3=O)OC3=C2C(=O)CCC3)ccc1OCC(=O)Nc1ccccc1 | -30.9% |
| CCCn1c(NC(=O)CN2C(=O)NC3(CCCCC3)C2=O)nc2ccccc21 | -19.1% |
| O=C(Cn1cc(C(=O)C2CC2)c2ccccc21)NC1CCCC1 | 16.3% |
| O=C(Nc1ccc2ccccc2n1)Nc1ccccc1F | 16.6% |
| O=C(O)c1cccc(N2CCCCS2(=O)=O)c1 | 15.8% |
| OCCC1CN(Cc2cc(F)ccc2-n2cccn2)CCN1C1CCCC1 (stereo not shown) | -29% |
| Cc1cc(C)c2c(N)c(C(=O)Nc3ccc([N+](=O)[O-])cc3)sc2n1 | 20.2% |
| Cc1ccc2c(c1)cc(CN(Cc1ccc3c(c1)OCO3)C(=O)c1ccccc1)c1nnnn12 | -11.5% |
| CCCCCCCCC(=O)NCc1ccc(O)c(OC)c1 | -17.1% |
| COC(=O)c1ccc(-n2c(C)cc(C(=O)CSc3cccc[n+]3[O-])c2C)cc1 | 21.2% |
| Cc1ccc2c(c1)nnc1nnc(SCC(=O)O)n12 | 3.45% |
| Cc1ccc(NC(=O)CCSc2nnc(-c3ccco3)o2)cc1 | 9.02% |
| CCOc1ccc(-n2c(C)cc(C(=O)NS(=O)(=O)c3ccc(C)cc3)c2C)cc1 | -32.3% |
| O=C(CN1CCN(S(=O)(=O)c2ccccc2F)CC1)Nc1ccnn1C1CCCC1 | -25.8% |
| CCC(=O)c1cn(CC(=O)Nc2cc(C)ccc2C)c2ccccc12 | 13.4% |
| CCCCOC(=O)c1ccc(N=Nc2c(C)c(C#N)c(O)[nH]c2=O)cc1 | -2.34% |

| Structure (SMILES) | hERG current change (%, negative = inhibition) at 10uM |
| --- | --- |
| COc1ccc(S(=O)(=O)N2CCCCC2)cc1NC(=O)CCCOc1ccccc1 | -9.13% |
| COc1ccc([C@@H]2[C@@H]3C(=O)N(C(C)(C)C)C(=O)[C@@H]3[C@]3(Cc4ccc(Cl)cc4)C(=O)N(c4cccc(Br)c4)C(=O)N23)cc1 | 12.7% |
| O=C(CSc1nc2ccc([N+](=O)[O-])cc2[nH]1)c1ccc(Cl)cc1 | 12.1% |
| Cn1c(=O)c2ncn(CC(=O)NCCOc3ccccc3)c2n(C)c1=O | -4% |
| COc1ccc(C(=O)CC(c2ccccc2)S(=O)(=O)c2ccc(C)cc2)cc1 (stereo not shown) | 8.03% |
| CCCCNC(=S)NNC(=O)CCn1cc(C)cn1 | 26.3% |
| CN1C(=O)C2(C(C#N)=C(N)N(c3cc(Cl)cc(Cl)c3)C3=C2C(=O)CCC3)c2ccccc21 (stereo not shown) | 8.51% |
| CC(=O)Nc1cccc(/C(C)=N/NS(=O)(=O)c2ccc(C)cc2)c1 | 23.5% |
| Cc1c(C(=O)N2CCOCC2)sc(NC(=O)C(C)C)c1C#N | 24.9% |
| Cc1nn(-c2ccccc2)c(C)c1-c1cc(C(=O)N/N=C/c2ccc(O)cc2)[nH]n1 | 0.357% |
| S=c1[nH]nc(COc2ccc(Cl)cc2)n1C1CCCCC1 | 14.3% |
| CCN1CCc2c(sc(NC(=O)c3ccc(S(=O)(=O)N(CC)c4ccccc4)cc3)c2C(N)=O)C1 | 15.4% |
| COc1cccc(-n2nc3c(=S)[nH]nc(C)c3c2C)c1 | 18.3% |
| Cc1ccc(/C=C/C(=O)Nc2cccnc2)o1 | -11.2% |
| COC(=O)c1cnc(SCc2ccc(C)cc2)n1C | -14.2% |
| COc1cccc(C(=O)/C=C/Nc2ccc(NC(C)=O)cc2)c1 | -6.12% |
| COc1cc(CNCc2ccccn2)ccc1OCC(=O)NC1CCCCC1.Cl | -14.5% |
| COc1ccc(C(C)=O)cc1COC(=O)c1ccc(N)c([N+](=O)[O-])c1 | 35.1% |
| O.O=c1c(=O)n(O)c2ccccc2n1O | -0.56% |
| CC(=O)N1CCN(S(=O)(=O)c2ccc(Cl)cc2F)CC1 | 12.9% |
| CC(C)CC(=O)NS(=O)(=O)c1ccc(NS(C)(=O)=O)cc1 | 11.7% |
| Cc1cccc2nc(-c3ccco3)c(Nc3ccc4c(c3)OCO4)n12 | 7.6% |
| Fc1ccc2nc(C3CCN(Cc4nc(CC5CC5)no4)CC3)[nH]c2c1 | -51.9% |
| CCOC(=O)C1CCN(C(=S)Nc2cc(C)ccc2C)CC1 | 2.4% |
| CC(=O)C1=C(O)C(=O)N(c2ccc(O)cc2)C1c1ccc(Cl)cc1 (stereo not shown) | 17.4% |
| CCC(C)OC(=O)C1=C(C)NC(=O)CC1c1ccccc1OC (stereo not shown) | -14.2% |
| O=C(CSc1ccc(-c2cccc([N+](=O)[O-])c2)nn1)NCc1ccccc1 | -9.8% |
